# Results as given in PubChem BioAssay AID686979 (National Center for Advancing Translational Sciences (NCATS), 2013).
# Hit rate of the full screen: of about 420,000 compounds, about 50,000 (12%) were called active. The shares of active, inactive and inconclusive entries below differ from those in the screen. Calls come from the whole dose curve; as a rule, active = well fitted inhibition curve with a large enough effect; inconclusive = small, poorly fitted or top-dose-only effect; inactive = flat fitted curve, though single readings scatter. Potencies of inconclusive entries are left out as doubtful fits.
# Experiment: qHTS for Inhibitors of human tyrosyl-DNA phosphodiesterase 1 (TDP1): qHTS in cells in presence of CPT; note: nearly all actives have a fitted effect of over 55% in size
# Details: chicken DT40 Tdp1-/-;hTDP1 cells + 20 nM CPT, ATP luminescence, 48 h; activity change, negative = growth inhibition: at 46.2 µM (top of the series) unless noted
# Procedure, shortened: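 Chicken DT40 Tdp1-/- cells complemented with human TDP1, 400 cells/well, exposed to compounds plus 20 nM camptothecin for at least 48 h at 37 C; viability read as ATP content by CellTiter-Glo luminescence.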
# % is set by controls: 0 for no effect and ±100 for the full control effect; potency is the fitted concentration of half-maximal effect; tags give direction and shape of the fitted curve.
Structure (SMILES),Potency,"activity change, negative = growth inhibition"
CCc1ccccc1OCC(=O)Nc1ccc(F)c(S(=O)(=O)N2CCOCC2)c1,"inconclusive [inhibitor, single point]",–
c1ccc(OCCN2CCOCC2)cc1,inactive,–
CCOCCCNC(=O)c1cc(Sc2cccc(Cl)c2)nc2ccccc12,"inconclusive [inhibitor, single point]",–
COc1ccc(NC(=O)c2ccc3ncsc3c2)c2ccccc12,inactive,–
C[C@@H]1CN([C@@H](C)CO)C(=O)c2cc(NS(=O)(=O)c3cccs3)ccc2O[C@H]1CN(C)Cc1ccc(C(F)(F)F)cc1,"inconclusive [inhibitor, single point]",–
Cc1ccc(C)c(OCC(O)CN2CCC(C)CC2)c1C (stereo not drawn),"inconclusive [inhibitor, single point]",–
C[C@@H]1CN([C@@H](C)CO)S(=O)(=O)c2ccc(Br)cc2O[C@H]1CN(C)C(=O)c1ccccc1F,"inconclusive [inhibitor, single point]",–
COc1ccc(-c2cn3nc(N4CCCC(C(=O)Nc5cccc(OC)c5)C4)sc3n2)cc1 (stereo not drawn),active: 20.6 µM,–
CC(C)(C)c1ccc(C(=O)NCCC(=O)NCc2ccco2)cc1,inactive,–
COc1cccc(C(=O)N2c3ccc(C)cc3C(C)(c3ccccc3)CC2(C)C)c1 (stereo not drawn),"inconclusive [inhibitor, single point]",–
Cc1ccccc1C(=O)Nc1sc2c(c1C(=O)N1CCCCC1)CCC(C)C2 (stereo not drawn),active: 18.4 µM,–
Cc1cc(NC(=O)c2cc(-c3ccncc3)nc3ccccc23)ccc1Br,active: 23.1 µM,–
Cc1cccc(NC(=O)c2ccccn2)c1C,"inconclusive [inhibitor, partial curve]",–
C=CCOc1cccn2c(N(C=O)Cc3ccccc3)c(CC)nc12,active: 13 µM,–
CCOC(=O)C1Nc2ccccc2C2C(O)C(O)CC12 (stereo not drawn),active: 29.1 µM,–
O=C(O)Cn1cc(C(=S)N2CCCCC2)c2ccccc21,inactive,–
Cc1ccc(-c2nc(=S)c3c(n2Cc2ccco2)CCCC3)cc1,"inconclusive [inhibitor, single point]",–
Cc1ccccc1C(=O)N/N=C1/SCC(=O)N1Cc1ccc2c(c1)OCO2,inactive,–
COC(=O)c1ccc(OCC(=O)c2ccc(C)c(C)c2)cc1,"inconclusive [inhibitor, single point]",–
O=C(c1ccc(Cl)cc1)C(CN1CCCCC1)c1ccccc1 (stereo not drawn),active: 1.64 µM,–
O=C(NCc1cccnc1)C(=O)NCC(c1cccnc1)N1CCN(c2ccc(F)cc2)CC1 (stereo not drawn),active: 20.6 µM,–
CN(C)C(=O)CCC(=O)N1CCCCC1C(=O)Nc1ccc(Oc2ccccc2F)cc1 (stereo not drawn),"inconclusive [inhibitor, single point]",–
CCC(=O)Nc1ccc(NC(=O)c2ccco2)c(OC)c1,inactive,–
Cc1cc2nc(C)n(CCCN)c2cc1C,active: 23.1 µM,–
CCOC(=O)c1c(C)n(C)c2ccc(OC)c(NC(=O)c3cccs3)c12,"inconclusive [inhibitor, single point]",–

Structure (SMILES),Potency,"activity change, negative = growth inhibition"
Cc1ccc(CC(=O)Nc2ccc3c(c2)N(C)C(=O)c2ccccc2S3)cc1,"inconclusive [inhibitor, single point]",–
COCCn1c(C)cc(C(=O)COc2ccc(C)nc2[N+](=O)[O-])c1C,–,inconclusive: -32.5% [inhibitor]
Cc1ccc(NC(=O)Nc2ccc3c(c2)C(=O)OC3)cc1Cl,inactive,–
COc1cc(/C=N/NC(=O)C2c3ccccc3Oc3ccccc32)ccc1O,"inconclusive [inhibitor, single point]",–
Cc1ccc(-n2nc3c(N4CCCC(C(=O)NCc5ccc(Cl)cc5)C4)nnc(C)c3c2C)cc1 (stereo not drawn),active: 9.2 µM,–
c1ccc(-c2ccc(C3=Nn4c(nnc4-c4cc(-c5ccccc5)n[nH]4)SC3)cc2)cc1,"inconclusive [inhibitor, single point]",–
COc1cccc(-c2nc(CS(=O)(=O)CC(=O)N3CCCCC3)c(C)o2)c1,inactive,–
COCCN1C(=O)CN(S(C)(=O)=O)CC1(C)C(=O)Nc1ccc2c(c1)OCCO2 (stereo not drawn),inactive,–
CCc1cccc(NS(=O)(=O)c2ccc3c(c2)CCC(=O)N3)c1,–,inconclusive: -34.4% [inhibitor]
O=C(Nc1ccc(N2CCOCC2)cc1)c1cn2ccccc2n1,active: 13 µM,–
CCOc1ccc(N(CC(=O)N2CCN(Cc3ccccc3)CC2)S(C)(=O)=O)cc1,inactive,–
COc1ccc(-c2nnnn2-c2ccccc2OC)cc1,"inconclusive [inhibitor, single point]",–
Cc1ccnc2ccc(N)cc12,"inconclusive [inhibitor, single point]",–
O=c1[nH]c(C2CCCN(S(=O)(=O)c3ccccc3Cl)C2)nc2c1nnn2Cc1ccc2c(c1)OCCO2 (stereo not drawn),"inconclusive [inhibitor, single point]",–
CCCOc1ccc(C(=O)Nc2ccc3oc(-c4cccc(Cl)c4Cl)nc3c2)cc1,active: 8.2 µM,–
CCOC(=O)c1ccc(NC(=O)CSc2cn(CC(=O)N3CCCC3)c3ccccc23)cc1,"inconclusive [inhibitor, single point]",–
CCc1ccc(-c2cn3c(n2)sc2cc(C(=O)NCCC4=CCCCC4)ccc23)cc1,"inconclusive [inhibitor, single point]",–
CCn1c(=O)c2sccc2n2c(CCCC(=O)N3CCN(c4cccc(Cl)c4)CC3)nnc12,active: 18.4 µM,–
CCOC(=O)c1ccc(NC(=O)C(Cc2ccccc2)N2Cc3ccccc3C2=O)cc1 (stereo not drawn),"inconclusive [inhibitor, single point]",–
CCCNC(=O)C1(C)CCCN(C(=O)c2ccc3sccc3c2)C1 (stereo not drawn),"inconclusive [inhibitor, single point]",–
O=C1CCCN1c1ncc(S(=O)(=O)c2ccc([N+](=O)[O-])cc2)s1,"inconclusive [inhibitor, single point]",–
CC(=O)N1c2ccc(C)cc2Sc2c1ccc1ccccc21,inactive,–
CC(C)[C@H](NC(=O)C1CC(=O)N(c2ccc(F)cc2)C1)C(=O)N1CCCCC1 (stereo partly drawn),"inconclusive [inhibitor, single point]",–
Cc1c(C)c(C)c(CO/N=C/c2cccs2)c(C)c1C,"inconclusive [inhibitor, single point]",–
Cc1cc(C)nc(NC(=S)Nc2ccc(Br)cc2Cl)c1,active: 6.51 µM,–

Structure (SMILES),Potency,"activity change, negative = growth inhibition"
Clc1cccc(Nc2nc(-c3ccncc3)cs2)c1,"inconclusive [inhibitor, single point]",–
O=C(CSc1nnc(-c2ccc(Br)cc2)o1)Nc1cccc2ccccc12,"inconclusive [inhibitor, partial curve]",–
COc1ccc(-c2cnc3ccccc3n2)cc1NC(=O)CNC(=O)c1ccccc1,"inconclusive [inhibitor, full curve]",–
CSc1cccc(CNC(=O)C2CCC(=O)N(CC3CCCCC3)C2)c1 (stereo not drawn),"inconclusive [inhibitor, single point]",–
CCn1c(C)[n+](CCOCC[n+]2c(C)n(CC)c3cc(Cl)c(Cl)cc32)c2cc(Cl)c(Cl)cc21,inactive,–
CC(C)OC(=O)CN1CCN(c2ccc(Cl)cc2)CC1,inactive,–
CCN(CC)S(=O)(=O)c1cccc(NC(=O)CSc2nc3ccccc3[nH]2)c1,active: 23.1 µM,–
Cc1nc(N2CCCCC2)c2c(C)c(C(=O)Nc3cccc(C(F)(F)F)c3)sc2n1,"inconclusive [inhibitor, single point]",–
COc1ccc(C(=O)Nc2nc3n(n2)C(c2ccccc2)C=C(c2ccccc2)N3)cc1 (stereo not drawn),active: 18.4 µM,–
C[n+]1ccc(CO)cc1,inactive,–
CC(C)c1ccc(NC(=O)Cn2cc(S(=O)(=O)Cc3cccc(Cl)c3)c3ccccc32)cc1,"inconclusive [inhibitor, single point]",–
CCCN(CCC)C(=S)Nc1cc(C(=O)OC)ccc1C(=O)OC,active: 18.4 µM,–
CCc1ccc(OCCNc2cc(N3CCNC(C)C3)ccc2[N+](=O)[O-])cc1 (stereo not drawn),active: 23.1 µM,–
O=C(CCS(=O)(=O)c1nc(-c2cccs2)cc(C(F)(F)F)n1)Nc1cc(Br)ccc1O,active: 0.651 µM,–
CC(=O)c1ccc(OC(C)C)c(Cc2c(O)nc(N)[nH]c2=O)c1,inactive,–
COc1ccc(C(=O)c2c(C)c3ccccc3n2CC(O)CNC(C)C)cc1 (stereo not drawn),"inconclusive [inhibitor, single point]",–
O=c1[nH]c(=O)n(-c2ccccc2)c2c1C(C(F)(F)F)(C(F)(F)F)N=C(C1CCCCC1)N2,"inconclusive [inhibitor, partial curve, poor fit]",–
Clc1ccc(Cn2c(-c3cccnc3Cl)nc3ccccc32)c(Cl)c1,"inconclusive [inhibitor, single point]",–
CCCCn1c(=O)[nH]c(=O)c2c1nc(-c1ccc([N+](=O)[O-])cc1)n2CC,"inconclusive [inhibitor, partial curve, poor fit]",–
O=C(CP(=O)(c1ccccc1)c1ccccc1)N/N=C/c1cc(Br)cc(Br)c1O,active: 14.6 µM,–
O=C1CCCCC1C(=O)c1cn(-c2ccc(Cl)c(Cl)c2)nn1 (stereo not drawn),inactive,–
Cc1cc2cc(CN(CCCN3CCOCC3)C(=O)NC3CCCCC3)c(=O)[nH]c2cc1C,"inconclusive [inhibitor, single point]",–
Cc1cc(C)c(S(=O)(=O)Nc2ccc(-c3cn4ccccc4n3)cc2)c(C)c1,"inconclusive [inhibitor, single point]",–
